The other results are listed elsewhere or left out.
How the values were obtained:
Assay in all cases: glycan array binding signal (z-score within array); higher = stronger binding
Details in all cases: glycan notation: IUPAC condensed, linker removed
[1] = target: Fuc(a1-2)Gal(b1-4)GlcNAc(b1-3)Gal(b1-4)GlcNAc(b1-2)Man(a1-3)[Fuc(a1-2)Gal(b1-4)GlcNAc(b1-3)Gal(b1-4)GlcNAc(b1-2)Man(a1-6)]Man(b1-4)GlcNAc(b1-4)GlcNAc
Method in brief: (§1)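 Negative Z-scores can be read as non-binding. The Z-score is calculated within each array and then averaged across arrays of one protein sequence at different concentrations or buffers and across linkers. Arrays, 3228 in all, were curated from the Consortium for Functional Glycomics database and kept only where the protein sequence was available.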

[2] = target: Fuc(a1-2)Gal(b1-4)GlcNAc(b1-3)Gal(b1-4)GlcNAc(b1-3)Gal(b1-4)GlcNAc
Method in brief: as §1

[3] = target: Fuc(a1-2)Gal(b1-4)GlcNAc(b1-3)GalNAc
Method in brief: as §1

[4] = target: Fuc(a1-2)Gal(b1-4)GlcNAc(b1-3)[Fuc(a1-2)Gal(b1-4)GlcNAc(b1-6)]GalNAc
Method in brief: as §1

[5] = target: Fuc(a1-2)Gal(b1-4)GlcNAc(b1-3)[Fuc(a1-3)[Gal(b1-4)]GlcNAc(b1-6)]Gal(b1-4)Glc
Method in brief: as §1

[6] = target: Fuc(a1-2)Gal(b1-4)GlcNAc(b1-6)GalNAc
Method in brief: as §1

[7] = target: Fuc(a1-2)Gal(b1-4)GlcNAc6S
Method in brief: as §1

[8] = target: Fuc(a1-2)Gal(b1-4)[Fuc(a1-3)]GlcNAc
Method in brief: as §1

[9] = target: Fuc(a1-2)Gal(b1-4)[Fuc(a1-3)]GlcNAc(b1-2)Man(a1-3)[Fuc(a1-2)Gal(b1-4)[Fuc(a1-3)]GlcNAc(b1-2)Man(a1-6)]Man(b1-4)GlcNAc(b1-4)[Fuc(a1-6)]GlcNAc
Method in brief: as §1

[10] = target: Fuc(a1-2)Gal(b1-4)[Fuc(a1-3)]GlcNAc(b1-2)[Fuc(a1-2)Gal(b1-4)[Fuc(a1-3)]GlcNAc(b1-4)]Man(a1-3)[Fuc(a1-2)Gal(b1-4)[Fuc(a1-3)]GlcNAc(b1-2)Man(a1-6)]Man(b1-4)GlcNAc(b1-4)GlcNAc
Method in brief: as §1

[11] = target: Fuc(a1-2)Gal(b1-4)[Fuc(a1-3)]GlcNAc(b1-3)Gal(b1-4)[Fuc(a1-3)]GlcNAc
Method in brief: as §1

[12] = target: Fuc(a1-2)Gal(b1-4)[Fuc(a1-3)]GlcNAc(b1-3)Gal(b1-4)[Fuc(a1-3)]GlcNAc(b1-3)Gal(b1-4)[Fuc(a1-3)]GlcNAc
Method in brief: as §1

[13] = target: Fuc(a1-2)Gal(b1-4)[Fuc(a1-3)]GlcNAc(b1-3)GalNAc
Method in brief: as §1

[14] = target: Fuc(a1-2)Gal(b1-4)[Fuc(a1-3)]GlcNAc(b1-3)[Neu5Ac(a2-6)Gal(b1-4)GlcNAc(b1-6)]Gal(b1-4)Glc
Method in brief: as §1

[15] = target: Fuc(a1-2)Gal3S(b1-4)GlcNAc
Method in brief: as §1

[16] = target: Fuc(a1-2)Gal6S(b1-3)GlcNAc
Method in brief: as §1

[17] = target: Fuc(a1-2)Gal6S(b1-3)GlcNAc6S
Method in brief: as §1

Fuc(a1-2)Gal6S(b1-4)Glc = target: Fuc(a1-2)Gal6S(b1-4)Glc
Method in brief: as §1

[18] = target: Fuc(a1-2)Gal6S(b1-4)Glc6S
Method in brief: as §1

Fuc(a1-2)[Gal(a1-3)]Gal = target: Fuc(a1-2)[Gal(a1-3)]Gal
Method in brief: as §1

[19] = target: Fuc(a1-2)[Gal(a1-3)]Gal(b1-3)GalNAc
Method in brief: as §1

[20] = target: Fuc(a1-2)[Gal(a1-3)]Gal(b1-3)GalNAc(b1-3)Gal(a1-4)Gal(b1-4)Glc
Method in brief: as §1

[21] = target: Fuc(a1-2)[Gal(a1-3)]Gal(b1-3)GlcNAc
Method in brief: as §1

[22] = target: Fuc(a1-2)[Gal(a1-3)]Gal(b1-3)GlcNAc(b1-2)Man(a1-3)[Fuc(a1-2)[Gal(a1-3)]Gal(b1-3)GlcNAc(b1-2)Man(a1-6)]Man(b1-4)GlcNAc(b1-4)GlcNAc
Method in brief: as §1

[23] = target: Fuc(a1-2)[Gal(a1-3)]Gal(b1-3)GlcNAc(b1-2)Man(a1-3)[Fuc(a1-2)[Gal(a1-3)]Gal(b1-3)GlcNAc(b1-2)Man(a1-6)]Man(b1-4)GlcNAc(b1-4)[Fuc(a1-6)]GlcNAc
Method in brief: as §1

[24] = target: Fuc(a1-2)[Gal(a1-3)]Gal(b1-3)GlcNAc(b1-3)GalNAc
Method in brief: as §1

[25] = target: Fuc(a1-2)[Gal(a1-3)]Gal(b1-3)GlcNAc(b1-6)GalNAc
Method in brief: as §1

[26] = target: Fuc(a1-2)[Gal(a1-3)]Gal(b1-4)Glc
Method in brief: as §1

[27] = target: Fuc(a1-2)[Gal(a1-3)]Gal(b1-4)GlcNAc
Method in brief: as §1

[28] = target: Fuc(a1-2)[Gal(a1-3)]Gal(b1-4)GlcNAc(b1-2)Man
Method in brief: as §1

[29] = target: Fuc(a1-2)[Gal(a1-3)]Gal(b1-4)GlcNAc(b1-2)Man(a1-3)[Fuc(a1-2)[Gal(a1-3)]Gal(b1-4)GlcNAc(b1-2)Man(a1-6)]Man(b1-4)GlcNAc(b1-4)GlcNAc
Method in brief: as §1

[30] = target: Fuc(a1-2)[Gal(a1-3)]Gal(b1-4)GlcNAc(b1-2)Man(a1-3)[Fuc(a1-2)[Gal(a1-3)]Gal(b1-4)GlcNAc(b1-2)Man(a1-6)]Man(b1-4)GlcNAc(b1-4)[Fuc(a1-6)]GlcNAc
Method in brief: as §1

[31] = target: Fuc(a1-2)[Gal(a1-3)]Gal(b1-4)GlcNAc(b1-3)GalNAc
Method in brief: as §1

[32] = target: Fuc(a1-2)[Gal(a1-3)]Gal(b1-4)GlcNAc(b1-3)[Fuc(a1-2)[Gal(a1-3)]Gal(b1-4)GlcNAc(b1-6)]GalNAc
Method in brief: as §1

[33] = target: Fuc(a1-2)[Gal(a1-3)]Gal(b1-4)GlcNAc(b1-6)GalNAc
Method in brief: as §1

[34] = target: Fuc(a1-2)[Gal(a1-3)]Gal(b1-4)[Fuc(a1-3)]Glc
Method in brief: as §1

[35] = target: Fuc(a1-2)[Gal(a1-3)]Gal(b1-4)[Fuc(a1-3)]GlcNAc
Method in brief: as §1

B1: Siglec-E (Mus musculus), Q91Y57 (protein)
chain: MLLLLLLLLLWGIKGVEGQNPQEVFTLNVERKVVVQEGLCVLVPCNFSYLKKRLTDWTDSDPVHGFWYREGTDRRKDSIVATNNPIRKAVKETRNRFFLLGDPWRNDCSLNIREIRKKDAGLYFFRLERGKTKYNYMWDKMTLVVTALTNTPQILLPETLEAGHPSNLTCSVPWDCGWTAPPIFSWTGTSVSFLSTNTTGSSVLTITPQPQDHGTNLTCQVTLPGTNVSTRMTTRLNVSYAPKNLTVTIYQGADSVSTILKNGSSLPISEGQSLRLICSTDSYPPANLSWSWDNLTLCPSKLSKPGLLELFPVHLKHGGVYTCQAQHALGSQHISLSLSPQSSATLSEMMMGTFVGSGVTALLFLSVCILLLAVRSYRRKPARPAVVAPHPDALKVSVSQNPLVESQADDSSEPLPSILEAAPSSTEEEIHYATLSFHEMKPMNLWGQQDTTTEYSEIKFPQRTAWP
[1]
  glycan array binding signal (z-score): -0.402
[2]
  glycan array binding signal (z-score): -0.296
[3]
  glycan array binding signal (z-score): 0.15
[4]
  glycan array binding signal (z-score): 0.034
[5]
  glycan array binding signal (z-score): -0.559
[6]
  glycan array binding signal (z-score): -0.489
[7]
  glycan array binding signal (z-score): 0.191
[8]
  glycan array binding signal (z-score): -0.399
[9]
  glycan array binding signal (z-score): 0.58
[10]
  glycan array binding signal (z-score): 0.32
[11]
  glycan array binding signal (z-score): -0.458
[12]
  glycan array binding signal (z-score): -0.489
[13]
  glycan array binding signal (z-score): -0.019
[14]
  glycan array binding signal (z-score): -0.483
[15]
  glycan array binding signal (z-score): -0.524
[16]
  glycan array binding signal (z-score): -0.173
[17]
  glycan array binding signal (z-score): 2.52
Fuc(a1-2)Gal6S(b1-4)Glc
  glycan array binding signal (z-score): -0.15
[18]
  glycan array binding signal (z-score): 0.284
Fuc(a1-2)[Gal(a1-3)]Gal
  glycan array binding signal (z-score): -0.371
[19]
  glycan array binding signal (z-score): 0.178
[20]
  glycan array binding signal (z-score): -0.454
[21]
  glycan array binding signal (z-score): 1.03
[22]
  glycan array binding signal (z-score): -0.19
[23]
  glycan array binding signal (z-score): 0.503
[24]
  glycan array binding signal (z-score): 5.32
[25]
  glycan array binding signal (z-score): -0.063
[26]
  glycan array binding signal (z-score): -0.317
[27]
  glycan array binding signal (z-score): -0.454
[28]
  glycan array binding signal (z-score): -0.038
[29]
  glycan array binding signal (z-score): -0.367
[30]
  glycan array binding signal (z-score): 3.5
[31]
  glycan array binding signal (z-score): -0.33
[32]
  glycan array binding signal (z-score): 5.58
[33]
  glycan array binding signal (z-score): -0.005
[34]
  glycan array binding signal (z-score): -0.618
[35]
  glycan array binding signal (z-score): 0.611

From the supplement of paper PMC8728848
